The list shows a part of the results. The list includes weakly bound sequences.
What follows are sequences tested against MaxL homodimer (UniProt P61244) (assay: universal protein-binding microarray (PBM)). Conditions: PBS-based mixture, 10 nM His-tagged protein dimer, 2% milk, 200 ng/uL BSA, 50 ng/uL salmon testes DNA, 0.02% TX-100; detection with Alexa 488 anti-His …; high values mean tight binding; most listed sequences are background and not binding sites; double strand, one strand shown.
Chain of UniProt P61244 (P61244 whole entry): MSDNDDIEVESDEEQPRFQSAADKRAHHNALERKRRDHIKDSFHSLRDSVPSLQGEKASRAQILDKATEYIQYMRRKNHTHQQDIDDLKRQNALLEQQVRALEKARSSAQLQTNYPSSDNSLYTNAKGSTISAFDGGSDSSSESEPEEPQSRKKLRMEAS

| Sequence | binding signal (normalized occupancy) |
| --- | --- |
| GGGAACCC | 0.0679 |
| CCAGTTGC | 0.0718 |
| CAGATGTC | 0.0827 |
| GCTATAGC | 0.0697 |
| GTGTGCCA | 0.0808 |
| ATAGCGTC | 0.0734 |
| GATTCTGA | 0.0722 |
| GATAATTA | 0.0822 |
| CACCAAAG | 0.0696 |
| GTTTACTA | 0.0818 |
| ATCGGGCC | 0.0723 |
| GGTGATAA | 0.0814 |
| ATCTACAA | 0.0772 |
| ACATTCAA | 0.0775 |
| CCGCTAGC | 0.0662 |
| ACAGTCAC | 0.0821 |
| CCATCTTC | 0.0717 |
| ACCTACAG | 0.0776 |
| CCTATTTC | 0.0789 |
| AAAGGTCA | 0.0749 |
| AACGTTAA | 0.0701 |
| CTGGCGAA | 0.0672 |
| ATTACCGA | 0.0757 |
| ATACCCGA | 0.0753 |
| ATTGCCTC | 0.0778 |

| Sequence | binding signal (normalized occupancy) |
| --- | --- |
| GAACCGGA | 0.0659 |
| CATGCAGA | 0.0959 |
| GCGCCCCA | 0.074 |
| GCACAAGA | 0.078 |
| GCACTATA | 0.0783 |
| CATAATGA | 0.0823 |
| TACGACAA | 0.0706 |
| CGACTAGA | 0.0749 |
| ATCCTGGA | 0.0757 |
| AGCCGGCA | 0.0634 |
| CTTTAGTA | 0.073 |
| CCGCATGA | 0.113 |
| CCGCCAGC | 0.0729 |
| CGACTGAA | 0.0682 |
| AACACGAT | 0.0845 |
| CAGTATAC | 0.0771 |
| ATCACTTA | 0.08 |
| ACGAGCGC | 0.0701 |
| CTTTACAC | 0.0805 |
| CAGAGCGA | 0.0737 |
| CGGAGTAA | 0.071 |
| AATGTTCG | 0.0738 |
| ACTCCTAA | 0.0732 |
| CCATCCGG | 0.076 |
| CCATTTGA | 0.0761 |

| Sequence | binding signal (normalized occupancy) |
| --- | --- |
| CCGCACAA | 0.0791 |
| ACGCACTC | 0.0766 |
| ACGAGGTC | 0.0849 |
| AAGGCCCC | 0.071 |
| GATCGACA | 0.0758 |
| GCGGGCAC | 0.0758 |
| GGCCATTA | 0.0755 |
| CCGTTCTC | 0.0814 |
| CACAAAAG | 0.0701 |
| ATAGACTC | 0.0787 |
| ACCGAGAT | 0.0721 |
| CCGTCAGG | 0.0679 |
| ACGTGCGA | 0.093 |
| GTAAACAA | 0.0774 |
| GAGGAGGA | 0.0761 |
| AGAAACTC | 0.0708 |
| GTAGGCTA | 0.0748 |
| CGCACAGA | 0.0751 |
| ATATATGG | 0.0895 |
| GCACGGCC | 0.0758 |
| CCCCCTCA | 0.0845 |
| GAGCTATA | 0.0729 |
| AGATAGTA | 0.0806 |
| ATAGTGCC | 0.0756 |
| AAATAGGC | 0.076 |

| Sequence | binding signal (normalized occupancy) |
| --- | --- |
| GTATCACA | 0.0821 |
| AGGCAGAT | 0.0775 |
| CACAGCCC | 0.0731 |
| TGTCCGAA | 0.0691 |
| CAATTAAA | 0.0744 |
| TACGTCCA | 0.0733 |
| CCTATTCA | 0.0792 |
| ATTTTAAA | 0.0743 |
| AAGCTTAC | 0.0706 |
| AGCGGTTG | 0.072 |
| AAGGGACG | 0.0723 |
| AAATAAGA | 0.0759 |
| AATGTTAG | 0.0805 |
| TCCCCAAA | 0.0787 |
| CGCTCCAC | 0.0821 |
| GTGATAAC | 0.0841 |
| CACACTGC | 0.0826 |
| CAGGGGGA | 0.0851 |
| AATTATCG | 0.0772 |
| TAACTCAA | 0.0715 |
| TACTGAAA | 0.0813 |
| CGAATTGC | 0.0728 |
| CTGAGTAC | 0.0687 |
| ATTTCAAC | 0.0786 |
| CGGGATCC | 0.0764 |

| Sequence | binding signal (normalized occupancy) |
| --- | --- |
| ACTTGATC | 0.0788 |
| AGGTTTTG | 0.065 |
| AGCTATGC | 0.0688 |
| AGGACGGA | 0.0714 |
| GATAATGA | 0.0767 |
| CAACCCGA | 0.0678 |
| CTTTGTAA | 0.0738 |
| AGCATGCG | 0.124 |
| ACGTGGGC | 0.1 |
| ACAAACCA | 0.0736 |
| ATAATAGA | 0.0841 |
| CAGCGTAC | 0.0708 |
| AAGGGATA | 0.0787 |
| CTTTCGCA | 0.0746 |
| CCAACTGA | 0.076 |
| CCCGGGGC | 0.0676 |
| ACGTCGAC | 0.0714 |
| ACGGCATG | 0.103 |
| GCCGGCAA | 0.0693 |
| GATCATCA | 0.0795 |
| AGTTGTCA | 0.0738 |
| AATATAGA | 0.0859 |
| CCTATAGA | 0.0848 |
| CATAAGAA | 0.085 |
| ACGCGAAT | 0.0863 |

| Sequence | binding signal (normalized occupancy) |
| --- | --- |
| CAGTACCA | 0.0759 |
| AAACAATG | 0.0821 |
| ACAGAAAT | 0.0761 |
| GTTTTGAA | 0.0702 |
| GAAGCAGC | 0.0689 |
| ACATGACC | 0.0952 |
| AATCTATG | 0.0822 |
| GAGTCCAA | 0.0715 |
| CCTAATAA | 0.0761 |
| TATGTTCA | 0.0769 |
| CTGGCATA | 0.075 |
| AGTGGAGA | 0.0775 |
| CCACGGGA | 0.0794 |
| GCTATCCC | 0.079 |
| AAGCCCGG | 0.064 |
| AAGAGCAC | 0.0774 |
| ATACCCCC | 0.0919 |
| CGCCCTGC | 0.0699 |
| AGTAAACC | 0.0715 |
| CCTTTCGA | 0.0683 |
| AGGATGTC | 0.0814 |
| GGTGTTAC | 0.0741 |
| CCATCCTA | 0.0827 |
| CCGGAGCG | 0.0667 |
| GTAAGTTA | 0.0731 |

| Sequence | binding signal (normalized occupancy) |
| --- | --- |
| ACCCACGG | 0.0796 |
| ATCGCGGG | 0.0725 |
| CCAATAGC | 0.0726 |
| GCAACGAC | 0.0721 |
| ACCAACTG | 0.0711 |
| TCTGGCCA | 0.0756 |
| CATCGTCG | 0.0723 |
| GCCCGTAA | 0.0707 |
| CAAGTTGG | 0.0737 |
| GTGGGTTA | 0.0825 |
| AATCCAGA | 0.0746 |
| ATGCTTAG | 0.0869 |
| CTGCGTAA | 0.0747 |
| AAAACAAT | 0.0769 |
| GCTGCATA | 0.0772 |
| GTTACCTA | 0.0825 |
| GAAGCAGA | 0.0767 |
| TACCCGGA | 0.0705 |
| CTAACTAC | 0.077 |
| ACTGGTAG | 0.0742 |
| AGCCTGAG | 0.066 |
| TAAATCCA | 0.0745 |

From paper PMC4242493
